This note sets out measurements from patent US20230227428A1 (Anaxis Pharma Pty Ltd, priority 2020, published 2023).

As usually defined, the IC50 is the concentration that inhibits the measured activity by half. For orientation: Kd means the equilibrium constant for the complex coming apart. Lower therefore signals higher affinity.

Experiment [1] concerns U937 human histiocytic leukemia cell line. The experiment is described as follows: Cellular assay: inhibition of TSQ induced necroptosis, 384 well plate format. Conditions: U-937, U937 cells, TSQ cocktail (TNF, Smac mimetic, Q-VD-OPh), 48 hours, CellTitre-Glo, read-out: Inhibition of TSQ-induced necroptosis (IC50 cell-based assay). Here is the method:
Cellular Assay: Screening Compounds for Inhibition of TSQ Induced Necroptosis, 384 Well Plate Format.
(§1) Cell Line ID: U937 human histiocytic leukemia cell line.
Cell Concentration (cells/well): Final cell density is 20000 cells per well.
Cell growth medium: HT-RPMI medium+7.4% Fetal Bovine Serum (FBS). Cells are cultured in Corning 150 cm^2 tissue culture flasks with vented caps at 37° C./5% CO2.
Incubation: Plates were incubated at 37° C./5% CO2 in a humidified incubator for 48 hours following addition of compounds and death stimuli (TSQ cocktail).
Compound concentration: 36 μM starting concentration, 1:3 dilution, 10 point
DMSO final concentration (% v/v): 0.3%.
Compounds in TSQ cocktail (T: TNF; S: Smac mimetic; Q: Q-VD-OPh) and their final concentrations:
hTNF-Fc (100 ng/ml)—produced by standard procedures as shown in Bossen et al., J Biol Chem, 2006, 281(20), 13964-13971.
Compound A (500 nM)—Smac mimetic, Tetralogic and SYNthesis med chem Q-VD-OPh (10 μM)—MP Biomedicals
(§2) The cellular assay was carried out according to the following steps: • 1. Each well was prepared by sequential addition of: • a. DMSO (control; columns 1-2 and 23-24) or compound in DMSO—addition was performed using acoustic transfer of nl volumes of stock compound to give final test concentrations of 36, 12, 4, 1.3, 0.44, 0.148, 0.049, 0.016, 0.005 and 0.002 μM. All wells were backfilled with DMSO to a final total volume in the well of 100 nl. • b. Following compound/DMSO addition in step (a), 40 μL of cell suspension (5×10^5 cells/mL) was added to provide a final cell concentration of 20,000 cells per well, and • c. Following cell addition in step (b), 10 μL of 5×TSQ cocktail (except to positive controls; […]) was added to each well. • 2. After 48 hours, plate was removed from the 37° C. incubator and equilibrated to room temperature for 45 minutes. • 3. 15 μL of room temperature CellTitre-Glo2™ (Promega™) was added to each well. • 4. Shook plates for 2 minutes (˜600 rpm) and incubated at room temperature for 15 minutes to allow signal to stabilise. • 5. Read luminescence readout on a plate reader.
Percent viability was calculated for each compound according to equation (2):
% viability=100×((RawData−NSA)/(TA−NSA) (2)
wherein RawData is the readout of any cell containing a compound of the invention TA is the total activity provided by the luminescence readout from DMSO only wells (columns 2 and 24)=100% viability NSA is the non-specific activity provided by DMSO+TSQ wells (columns 1 and 23)=0% viability
(§3) Curve fitting: 10-point titration curves are fitted with the 4-parameter logistic nonlinear regression model and the IC50 reported is the inflection point of the curve
Analysis: Data was loaded into Dotmatics™ and visualised using the Tibco® Spotfire™ software. points titration curve were fitted with the 4 parameter logistic nonlinear regression model and the IC50 reported reflect the inflection point of the curve for curve fitting.
Assay involving the TSQ cocktail (T: TNF; S: Smac mimetic; Q: Q-VD-OPh): TSQ treatment ensures that cells specifically undergo necroptotic cell death. TNF activates the TNF receptor, Smac mimetic directs the signal away from proinflammatory signaling and toward the RIP1/RIP3-mediated cell death pathways, and Q-VD-OPh ensures that the apoptotic response is blocked leaving only the programmed necrosis response. The compounds' activity (solution in DMSO) tested in this TSQ-induced assay was evaluated by determining the number of viable cells in culture by measuring the amount of ATP present as measured by CelltiterGlo.

Experiment [2] concerns U937 cells. The experiment can be described thus: Counter screen: cell viability of U937 cells treated with compound without the TSQ cocktail (off-target effect). Conditions: Homo sapiens, U-937, compound in DMSO without the TSQ cocktail, cell viability by CelltiterGlo, read-out: Off-target effect (IC50 cell-based assay). Here is the method:
as §1, §2, §3
Counter screen: In parallel, all compounds were tested for their ability to affect cell viability. The same U937 cells were treated with compound in DMSO without the TSQ cocktail. This counter screen enabled evaluation of off-target effects. In this case, cell viability was measured by CelltiterGlo.
Background: Counterscreens check selectivity or assay interference.

For experiment [3], the target named is T1, RIP3 (Homo sapiens, UniProt Q9Y572).
T1 construct: purchased DiscoverX (KINOMEscan service); host or cells: E. coli BL21-derived host (T7 phage) or HEK-293
The experiment is described as follows: KINOMEscan binding affinity assay, RIP3. The note with it: equilibrium dissociation constant. From the text:
(§4) The Hill Slope was set to −1.

Experiment [4] deals with T2, MLKL (full length) (Homo sapiens, UniProt Q8NB16).
T2 construct: purchased DiscoverX (KINOMEscan service); host or cells: E. coli BL21-derived host (T7 phage) or HEK-293
T2 sequence (Q8NB16 1-471): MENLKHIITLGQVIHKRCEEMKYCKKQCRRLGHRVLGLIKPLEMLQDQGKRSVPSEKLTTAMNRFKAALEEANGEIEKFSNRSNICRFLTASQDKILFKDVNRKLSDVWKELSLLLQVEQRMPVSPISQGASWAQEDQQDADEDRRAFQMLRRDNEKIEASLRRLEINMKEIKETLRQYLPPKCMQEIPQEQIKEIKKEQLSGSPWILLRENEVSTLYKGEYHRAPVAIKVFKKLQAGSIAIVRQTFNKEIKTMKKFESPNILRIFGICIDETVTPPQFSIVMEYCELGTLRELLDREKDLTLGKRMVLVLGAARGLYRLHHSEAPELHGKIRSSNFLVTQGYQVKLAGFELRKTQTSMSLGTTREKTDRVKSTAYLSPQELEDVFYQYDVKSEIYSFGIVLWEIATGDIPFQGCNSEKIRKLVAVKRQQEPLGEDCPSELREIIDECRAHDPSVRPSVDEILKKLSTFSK
The experiment is described as follows: KINOMEscan binding affinity assay, MLKL. The note with it: equilibrium dissociation constant.
Excerpt: as §4

The target of experiment [5] is T3, RIP1 (Homo sapiens, UniProt Q13546).
T3 construct: purchased DiscoverX (KINOMEscan service); host or cells: E. coli BL21-derived host (T7 phage) or HEK-293
T3 sequence (Q13546 1-671): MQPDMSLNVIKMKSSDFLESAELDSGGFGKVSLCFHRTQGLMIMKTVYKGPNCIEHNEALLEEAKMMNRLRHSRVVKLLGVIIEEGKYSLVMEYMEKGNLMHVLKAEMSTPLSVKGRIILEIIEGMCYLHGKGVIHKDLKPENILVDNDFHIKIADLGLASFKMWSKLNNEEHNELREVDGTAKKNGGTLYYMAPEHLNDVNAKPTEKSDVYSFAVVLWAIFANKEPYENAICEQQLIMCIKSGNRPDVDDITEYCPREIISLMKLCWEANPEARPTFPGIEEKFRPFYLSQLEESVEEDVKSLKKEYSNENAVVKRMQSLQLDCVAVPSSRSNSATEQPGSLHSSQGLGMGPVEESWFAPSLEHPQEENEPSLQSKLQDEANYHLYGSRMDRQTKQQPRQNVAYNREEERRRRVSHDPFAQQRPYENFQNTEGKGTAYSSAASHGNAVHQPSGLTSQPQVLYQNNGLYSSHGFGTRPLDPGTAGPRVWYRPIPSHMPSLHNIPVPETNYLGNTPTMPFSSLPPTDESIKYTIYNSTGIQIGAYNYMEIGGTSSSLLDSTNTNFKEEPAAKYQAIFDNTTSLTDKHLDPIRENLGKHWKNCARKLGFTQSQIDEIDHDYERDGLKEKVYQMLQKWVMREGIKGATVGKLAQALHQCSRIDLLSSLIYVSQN
The experiment can be described thus: KINOMEscan binding affinity assay, RIP1. Conditions: equilibrium dissociation constant.
Excerpt: as §4

Where only a bound is given, the exact number is not on record here.

T1 sequence (Q9Y572 whole entry): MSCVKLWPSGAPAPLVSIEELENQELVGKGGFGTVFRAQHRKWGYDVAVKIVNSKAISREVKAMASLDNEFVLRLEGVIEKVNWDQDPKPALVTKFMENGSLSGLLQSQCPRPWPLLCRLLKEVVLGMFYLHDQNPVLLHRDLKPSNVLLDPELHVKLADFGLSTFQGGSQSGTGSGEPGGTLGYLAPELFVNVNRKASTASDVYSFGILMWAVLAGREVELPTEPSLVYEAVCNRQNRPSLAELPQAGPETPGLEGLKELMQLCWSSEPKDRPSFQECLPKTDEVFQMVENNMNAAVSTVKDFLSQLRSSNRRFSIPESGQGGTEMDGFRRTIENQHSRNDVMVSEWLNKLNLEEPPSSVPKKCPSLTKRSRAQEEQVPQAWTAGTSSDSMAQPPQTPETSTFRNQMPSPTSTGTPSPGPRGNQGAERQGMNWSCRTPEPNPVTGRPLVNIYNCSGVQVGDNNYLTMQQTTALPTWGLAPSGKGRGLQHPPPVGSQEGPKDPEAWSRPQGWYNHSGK

Regarding `NC(=O)c1c(-c2ccc(NC(=O)Cc3ccccc3C(F)(F)F)cc2)n[nH]c1Nc1ccccn1` [Compound 7, 3-(4-(2-(2-(trifluoro-methyl)phenyl)acetamido)phenyl)-5-(pyridin-2-ylamino)-1H-pyrazole-4-carboxamide], the half-maximal inhibitory concentration (IC50) in experiment [1] lay within 100 to 1000 nM.
On the same count and under the same terms, in the case of `Cc1cccc(Nc2[nH]nc(-c3ccc(NC(=O)Cc4ccccc4)cc3)c2C(N)=O)n1` [Compound 39, 3-(4-(2-phenylacetamido)phenyl)-5-(6-methylpyridin-2-ylamino)-1H-pyrazole-4-carboxamide] it was 100 to 1000 nM; in that of `NC(=O)c1c(-c2ccc(NC(=O)N3CCc4ccccc4C3)cc2)n[nH]c1Nc1ccccn1` [Compound 47], above 1000 nM.
With `CN(C(=O)Nc1ccc(-c2n[nH]c(Nc3ccccn3)c2C(N)=O)cc1)c1ccccc1` [Compound 48, 3-(4-(3-methyl-3-phenylureido)phenyl)-5-(pyridin-2-ylamino)-1H-pyrazole-4-carboxamide], the IC50 in experiment [1] is above 1000 nM.
`COc1cc(Nc2[nH]nc(-c3ccc(NC(=O)N(C)Cc4ccccc4)cc3)c2C(N)=O)ccn1` [Compound 64, 3-(4-(3-benzyl-3-methylureido)phenyl)-5-((2-methoxypyridin-4-yl)amino)-1H-pyrazole-4-carboxamide]: the IC50 is above 1000 nM in experiment [2] and 100 to 1000 nM in experiment [1].
In the case of `NC(=O)c1c(-c2ccc(NC(=O)N3CCCC(c4cc(F)cc(F)c4)C3)cc2)n[nH]c1Nc1cccc(C(F)(F)F)n1` (stereo not drawn) [Compound 81, N-(4-(4-carbamoyl-5-((6-(trifluoromethyl)pyridin-2-yl)amino)-1H-pyrazol-3-yl)phenyl)-3-(3,5-difluorophenyl)piperidine-1-carboxamide], the IC50 is above 1000 nM in experiment [2] and below 100 nM in experiment [1]. Besides, the Kd in experiment [3] is above 1000 nM.
`NC(=O)c1c(-c2ccc(NC(=O)N3CCC[C@H](c4ccccc4)C3)cc2)n[nH]c1Nc1cccc(C(F)(F)F)n1` [Compound 82, (R)-N-(4-(4-carbamoyl-5-((6-(trifluoromethyl)pyridin-2-yl)amino)-1H-pyrazol-3-yl)phenyl)-3-phenyl-piperidine-1-carboxamide]: the IC50 in experiment [2] and in experiment [1] was above 1000 nM throughout. The Kd is 100 to 1000 nM in experiment [4], above 1000 nM in experiment [5] and above 1000 nM in experiment [3].
Turning to `NC(=O)c1c(-c2ccc(NC(=O)N3CCCC(c4ccc(F)c(F)c4)C3)cc2)n[nH]c1Nc1cccc(C(F)(F)F)n1` (stereo not drawn) [Compound 83, N-(4-(4-carbamoyl-5-((6-(trifluoromethyl)pyridin-2-yl)amino)-1H-pyrazol-3-yl)phenyl)-3-(3,4-difluorophenyl)piperidine-1-carboxamide], the IC50 in experiment [2] was above 1000 nM; in experiment [1], below 100 nM. Besides, the Kd was 100 to 1000 nM in experiment [4], below 100 nM in experiment [5] and above 1000 nM in experiment [3].
`Cc1cc(Nc2[nH]nc(-c3ccc(NC(=O)N4CCCC(c5ccccc5)C4)cc3)c2C(N)=O)cc(C)n1` (stereo not drawn) [Compound 87, N-(4-(4-carbamoyl-5-((2,6-dimethylpyridin-4-yl)amino)-1H-pyrazol-3-yl)phenyl)-3-phenylpiperidine-1-carboxamide]: the results for the IC50 in experiment [2] and in experiment [1] were above 1000 nM and 100 to 1000 nM, respectively. In addition, the figures for the Kd in experiment [4], in experiment [5] and in experiment [3] were below 100 nM, 100 to 1000 nM and above 1000 nM, respectively.
On to `COc1cccc(Nc2[nH]nc(-c3ccc(NC(=O)Nc4ccc(OC(F)(F)F)cc4)cc3)c2C(N)=O)c1` [Compound 105, 5-((3-methoxyphenyl)amino)-3-(4-(3-(4-(trifluoromethoxy)phenyl)ureido)phenyl)-1H-pyrazole-4-carboxamide], for which, in experiment [1], the half-inhibitory concentration (IC50) was in the range of 100 to 1000 nM.
On the same count and under the same terms, the figure for `COc1ccc(Nc2[nH]nc(-c3ccc(NC(=O)Nc4ccc(OC(F)(F)F)cc4)cc3)c2C(N)=O)cc1` [Compound 111, 5-((4-methoxyphenyl)amino)-3-(4-(3-(4-(trifluoromethoxy)phenyl)ureido)phenyl)-1H-pyrazole-4-carboxamide] is below 100 nM.
On to `CNC(=O)c1cc(Nc2[nH]nc(-c3ccc(NC(=O)Nc4ccc(OC(F)(F)F)cc4)cc3)c2C(N)=O)ccc1C` [Compound 115, 5-((4-methyl-3-(methylcarbamoyl)phenyl)amino)-3-(4-(3-(4-(trifluoromethoxy)phenyl)ureido)phenyl)-1H-pyrazole-4-carboxamide], for which, in experiment [1], the concentration for half-maximal inhibition (IC50) was below 100 nM.
